The values that follow come from the supplement of paper PMC3334620.

The full ranking holds about 33,000 sequences; the median of “E-score (-0.5 to 0.5)” is about -0.013, and the highest 2% start at about 0.3. Some of the results follow.

The assay concerns the target T1, Msn1 (UniProt P22148).
T1 sequence: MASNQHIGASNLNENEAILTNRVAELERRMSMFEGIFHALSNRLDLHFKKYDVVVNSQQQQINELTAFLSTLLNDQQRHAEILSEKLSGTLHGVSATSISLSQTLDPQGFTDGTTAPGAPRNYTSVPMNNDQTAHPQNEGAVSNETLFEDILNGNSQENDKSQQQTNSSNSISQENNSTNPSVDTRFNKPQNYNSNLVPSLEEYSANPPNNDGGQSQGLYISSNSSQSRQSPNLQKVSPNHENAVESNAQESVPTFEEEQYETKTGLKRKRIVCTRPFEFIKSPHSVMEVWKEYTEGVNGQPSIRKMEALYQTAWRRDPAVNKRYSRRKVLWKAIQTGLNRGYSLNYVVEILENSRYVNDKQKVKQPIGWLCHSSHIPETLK
In words: PBM E-score (8-mer binding enrichment) (E-score (-0.5 to 0.5)); higher = stronger / more preferred TF binding; most listed sequences are background and not binding sites. The settings on record: protein concentration: 200 nM; construct: GST-full length. On the procedure: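 Universal 'all 10-mer' protein binding microarrays (Agilent AMADID 015681) probed with GST-tagged S. cerevisiae TFs (full-length or DBD) made by in vitro transcription/translation (PURExpress), about 100-200 nM. Bound TF was detected with fluorescent anti-GST. Each ungapped 8-mer (which stands for itself and its reverse complement) is scored by the PBM enrichment score (E-score), a modified Wilcoxon-Mann-Whitney statistic from -0.5 to +0.5, computed with the Universal PBM Analysis Suite. Scale: above 0.35 generally sequence-specific binding.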
In the case of GCCCGACA, the “PBM E-score” value came to 0.0966. Turning to CGCGTCCG, the “PBM E-score” value is 0.182. Regarding ACGATGAC, the “PBM E-score” value came out at 0.0423. In the case of GTCAATCA, the “PBM E-score” value was -0.0572. As for AATGAGCC, the “PBM E-score” value is -0.266.

Consider AAATGTCT, for which the “PBM E-score” value was 0.486. On to ATCTTCCC, for which the “PBM E-score” value worked out at 0.00877. As for CCAAGATC, the “PBM E-score” value is -0.0303.

As for AAAGCTGC, the “PBM E-score” value was 0.113. Take ATGCCTCG: the “PBM E-score” value was found to be 0.0768. In the case of ACCGGGCA, the “PBM E-score” value stood at 0.0679. Turning to AACGGTGG, the “PBM E-score” value was -0.0814. The value for CATAAGAG was -0.121; that for AGAAGCTC was -0.0296. Turning to GGAGTGCC, the “PBM E-score” value is -0.122. With AGAGAGGG, the “PBM E-score” value is -0.234. Regarding CATGCAGC, the “PBM E-score” value was -0.289. On to GAACTCCC, for which the “PBM E-score” value is -0.0317. ACTTTATC: the “PBM E-score” value came to 0.232. Turning to GGGCCTCA, the “PBM E-score” value was -0.254. On to GGAGCTTA, for which the “PBM E-score” value is -0.137. Turning to ACCGACTA, the “PBM E-score” value was -0.24. As to AGCTGCAA, the “PBM E-score” value is -0.117. For GACCCCGA, the “PBM E-score” value was -0.0373.

Take GGGTGGAC: the “PBM E-score” value worked out at 0.0244.

For the sequence CGATTTGA, the “PBM E-score” value was -0.163. The result for CTAATTGC reads 0.0543; that for CAGCGCCC, -0.322; that for GGGTCTCA, -0.193. Take GTCGGCAA: the “PBM E-score” value amounted to 0.0539. Consider CCTGTTGC, for which the “PBM E-score” value was -0.11. Take CAAATGCC: the “PBM E-score” value is -0.0886. Regarding CCGAGCGA, the “PBM E-score” value was 0.108.

As for GGGATAAC, the “PBM E-score” value was -0.104.

As for AAGACCCG, the “PBM E-score” value was -0.16. The result for AATAGGCT reads 0.00282. Take AACAGCGC: the “PBM E-score” value is -0.176. GGTTCCAA: the “PBM E-score” value is 0.105. The value for ACAACTAG was 0.0515; that for AAGCCTCA was -0.318; that for TCTCCTAA was -0.167.

As for ACTCCTCC, the “PBM E-score” value was -0.164. On to AGGCATGA, for which the “PBM E-score” value is -0.183. The result for TCGAAAAA reads 0.211.

Regarding ACGTAAAC, the “PBM E-score” value was -0.096. Regarding TACTTCGA, the “PBM E-score” value turned out to be 0.221. Consider AAACCGTC, for which the “PBM E-score” value was -0.0905. Turning to AATGCTAT, the “PBM E-score” value was 0.0248. As for GGGCTAGA, the “PBM E-score” value was -0.0378. Turning to ACGTTCAT, the “PBM E-score” value was -0.0432. GACACCCA: the “PBM E-score” value was -0.0608. The result for GGGCCAGA reads -0.24. On to AAGAATCT, for which the “PBM E-score” value was found to be 0.00385.

ACTCTTAG: the “PBM E-score” value is -0.0534.

For GATCTCCA, the “PBM E-score” value is -0.103.

On to GAACCAAC, for which the “PBM E-score” value was -0.0556. As to ATCCGCCA, the “PBM E-score” value is -0.148. As to GATATCGA, the “PBM E-score” value was -0.0325. Turning to GATACGAC, the “PBM E-score” value worked out at 0.163.

With GGCTTCCC, the “PBM E-score” value is -0.146. As for AGGTCGAT, the “PBM E-score” value turned out to be 0.149. As to GTGCCTTA, the “PBM E-score” value is -0.17. On to AGTACCTC, for which the “PBM E-score” value was -0.0524. For the sequence GTTTAACA, the “PBM E-score” value was -0.112.

With ATGTCTAA, the “PBM E-score” value worked out at 0.403. For AGTGATAC, the “PBM E-score” value was -0.0394.

In the case of GAACAGGA, the “PBM E-score” value came out at 0.0425. With CAAGTTGC, the “PBM E-score” value was -0.0163. For the sequence CCTCCACA, the “PBM E-score” value was -0.153. With GGTTCCCA, the “PBM E-score” value is -0.0277. Take GGAATGAC: the “PBM E-score” value is 0.114. Regarding CGCCGTTA, the “PBM E-score” value was -0.0247. With ATTGGAGC, the “PBM E-score” value turned out to be 0.0666. As for AAATCAGT, the “PBM E-score” value was 0.0259.

Turning to GTCACGAC, the “PBM E-score” value came out at 0.287. ATAACCAC: the “PBM E-score” value is -0.0969. The result for CCCAACAG reads -0.158; that for ACGTTAGA, 0.106.

Consider CAGACGAC, for which the “PBM E-score” value is -0.114.

For the sequence CAAACGCC, the “PBM E-score” value came to 0.0963. Turning to AAGTCACA, the “PBM E-score” value turned out to be 0.127. On to ACGCACAC, for which the “PBM E-score” value was -0.0696. As to AGTGTGAT, the “PBM E-score” value was -0.0635. For the sequence ATAAGCGA, the “PBM E-score” value was determined as 0.0913. Turning to CGTCACAG, the “PBM E-score” value was found to be 0.059. With CGCACGAC, the “PBM E-score” value is -0.0608.
